Results from PubChem BioAssay AID1466 (National Center for Advancing Translational Sciences (NCATS), 2008).
Screen size: about 200,000 compounds; about 10 (0.005%) were called active. Inconclusive results, whose numbers are uncertain, are shown with a selection of clear calls. The call rests on the fitted dose curve; in most records, active means well fitted inhibition curve with a large enough effect; inconclusive means small, poorly fitted or top-dose-only effect, or effect the other way, or another doubt; inactive means no such curve, though single readings can be large or run the other way. No potency is given beside an inconclusive call; the fits are too rough.

These molecules were tested against Lysosomal alpha-glucosidase (Homo sapiens) (UniProt P10253) (assay: qHTS Assay for Inhibitors of Human alpha-Glucosidase as a Potential Chaperone Treatment of Pompe Disease). Conditions: purified human GAA, 4-MU-alpha-glucoside fluorescence; activity change, negative = inhibition: at 76.9 µM (top of the series) unless noted.
Summary of the method: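 Endpoint fluorogenic read: 20 min room-temperature reaction of 4 nM human alpha-glucosidase with 400 uM 4-methylumbelliferyl-alpha-D-pyranoside, pH 5.0, quenched with 1M NaOH/1M glycine pH 10. AC50 from Hill modeling.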
Potency means the concentration at half of the fitted maximal effect; tags describe the fitted curve by direction and shape.
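Wherever activity change, negative = inhibition is given: plate controls were uninhibited enzyme wells for no effect and no-enzyme background for full effect.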

For `O=C(NNc1ccccc1Br)C(O)(c1cccc(C(F)(F)F)c1)c1cccc(C(F)(F)F)c1`, which Potency is on record?
Its Potency is inconclusive [inhibitor, partial curve, poor fit].

With `CS(=O)(=O)NCCNc1ccc(C(F)(F)F)cc1[N+](=O)[O-]` as the molecule, how does the Potency read?
The Potency was inconclusive [activator, partial curve, poor fit].

`N#Cc1c(C(F)(F)F)cc(-c2ccco2)nc1SCc1ccncc1` was tested. Which Potency did it give?
The Potency was inconclusive [activator, partial curve].

With `Cc1ccc(C(=O)CSc2nc3ccccc3c(=O)[nH]2)cc1C` as the molecule, how does the Potency read?
Its Potency is inconclusive [inhibitor, partial curve, poor fit].

How did the Potency turn out when `O=C(O)c1ccc2c(c1)C(c1ccccc1)OC2=O` (stereo not given) was run?
The Potency was inconclusive [inhibitor, full curve, poor fit].

Which activity change, negative = inhibition does the source give for `CCC(=NCc1ccco1)c1c(C(F)(F)F)[nH]n(-c2nc3ccccc3s2)c1=O` here?
Its activity change, negative = inhibition is inconclusive: -16.6% [inhibitor].

With `O=C(Nc1ccc(F)cc1)C1CC(=O)n2ncnc2N1` (stereo not given) as the molecule, how does the Potency read?
Its Potency is inconclusive [inhibitor, partial curve, poor fit].

Which Potency does the source give for `CC(=O)NC1(C(F)(F)F)C(=O)NC(C)=C1C#N` (stereo not given) here?
Its Potency is inconclusive [inhibitor, single point].

For `CN(C)Cc1nc2ccccc2c(=O)n1CC(=O)Nc1cccc(S(=O)(=O)N2CCOCC2)c1`, which Potency is on record?
Its Potency is inconclusive [inhibitor, single point].

With `O=C(O)COc1ccc(/C=N/n2c(COc3ccccc3)nc3ccccc3c2=O)cc1` as the molecule, how does the Potency read?
Its Potency is “inactive”.

With `O=C(CN1CCN(Cc2ccccc2)CC1)Nc1ccccc1-c1ccccc1` as the molecule, how does the Potency read?
The Potency was inconclusive [inhibitor, single point].

How did the activity change, negative = inhibition turn out when `c1ccc(Cc2ccc(OCCCNC3CCCC3)cc2)cc1` was run?
The activity change, negative = inhibition was inconclusive: -15.1% [inhibitor].

How did the Potency turn out when `COc1cc(-c2nc3n(n2)C(c2ccc(F)cc2)C2=C(CCCC2=O)N3)cc(OC)c1OC` (stereo not given) was run?
The Potency was inconclusive [activator, partial curve].

Which activity change, negative = inhibition does the source give for `Cc1ccc(N2C(=O)c3cccc([N+](=O)[O-])c3C2=O)cc1C` here?
The activity change, negative = inhibition was inconclusive: 17.9% [activator].

How did the Potency turn out when `COc1ccc(C)cc1-n1nnnc1SCC(=O)Nc1cc(C)on1` was run?
The Potency was inconclusive [inhibitor, single point].

How did the activity change, negative = inhibition turn out when `C=CCn1c(SCc2nc(N)nc(N3CCCCC3)n2)nnc1-c1ccco1` was run?
The activity change, negative = inhibition was inconclusive: -16.1% [inhibitor].

For `Cc1cc(C)n(CCN(C)C(=O)CCc2nnc(CCC3CCCCC3)o2)n1`, which activity change, negative = inhibition is on record?
The activity change, negative = inhibition was inconclusive: 9.89% [activator].

`O=C(NCCN1CCCC1)c1ccc2c(=O)n(CCc3ccccc3)c(=O)[nH]c2c1` was tested. Which Potency did it give?
The Potency was inconclusive [activator, partial curve].

Which activity change, negative = inhibition does the source give for `O=c1[nH]nc(-c2cccs2)c2ccccc12` here?
The activity change, negative = inhibition was inconclusive: 16.3% [activator].

With `CCc1cc(=O)n2c([nH]c3ccccc32)c1C#N` as the molecule, how does the Potency read?
The Potency was inconclusive [activator, partial curve].

Which Potency does the source give for `CC1CN(C(=O)N[C@@H](Cc2ccccc2)C(=O)O)CC(C)O1` (stereo not given in full) here?
Its Potency is “inactive”.

Which Potency does the source give for `C/C(=N\NC(=O)c1ccc(CSc2nc(C)cc(C)n2)cc1)C1CCCCC1` here?
Its Potency is inconclusive [inhibitor, single point].

How did the Potency turn out when `CCCC1Cc2nc(N3CCCCC3)c(C#N)cc2CO1` (stereo not given) was run?
Its Potency is inconclusive [activator, single point].

Which activity change, negative = inhibition does the source give for `CCN(CC)CC(C)CNC(=O)CC(C(=O)N1CCc2ccccc21)n1ccnc1` (stereo not given) here?
The activity change, negative = inhibition was inconclusive: -16.4% [inhibitor].

Which Potency does the source give for `Cc1cc2c(C)cc(=O)oc2c2c1NCCC2` here?
The Potency was inconclusive [activator, partial curve].

With `COc1ccc(CCNC(=O)C2CC(c3ccccc3[N+](=O)[O-])=NO2)cc1` (stereo not given) as the molecule, how does the Potency read?
Its Potency is inconclusive [inhibitor, partial curve, poor fit].

For `CCNc1ccc2noc3c2c1C(=O)c1ccccc1-3`, which Potency is on record?
Its Potency is inconclusive [inhibitor, single point].

With `COCCn1c(=O)[nH]c2cc(C(=O)NC3CCCCCC3)ccc2c1=O` as the molecule, how does the Potency read?
The Potency was inconclusive [activator, partial curve].

Which Potency does the source give for `Cc1ccc2c(CN3CCN(Cc4ccc5c(c4)OCO5)CC3)cc(=O)oc2c1C` here?
The Potency was inconclusive [inhibitor, single point].

With `COc1ccc(CCn2c3c(c(=O)[nH]c2=O)C(NC(=O)c2cccs2)(C(F)(F)F)C(=O)N3)cc1OC` (stereo not given) as the molecule, how does the Potency read?
Its Potency is inconclusive [activator, partial curve].

Which Potency does the source give for `CCCCNC(=S)N1CCN(C(c2ccccc2)c2ccccc2)CC1` here?
The Potency was inconclusive [inhibitor, partial curve, poor fit].

For `CN1CCN(C(=O)Nc2ccccc2)CC1`, which activity change, negative = inhibition is on record?
Its activity change, negative = inhibition is inconclusive: 6% [activator].

With `Cc1oc2cc(O)ccc2c(=O)c1Oc1ccc2ccccc2c1` as the molecule, how does the Potency read?
The Potency was inconclusive [activator, partial curve].

For `Cn1nnnc1SCC(=O)Nc1nc(-c2ccccc2)c(-c2ccccc2)o1`, which Potency is on record?
The Potency was inconclusive [inhibitor, partial curve].

For `Nn1c(=O)[nH]c2c([nH]c3ccccc32)c1=O`, which activity change, negative = inhibition is on record?
Its activity change, negative = inhibition is inconclusive: 67.7% [activator].

`CC1=CC(C)(C)N(C(=O)CN2C(=O)CCC2=O)c2ccc(C)cc21` was tested. Which activity change, negative = inhibition did it give?
The activity change, negative = inhibition was inconclusive: 15.4% [activator].

Which Potency does the source give for `Cc1noc(C)c1C1(O)CCCCCCCCCCC1` here?
The Potency was inconclusive [inhibitor, partial curve].

With `c1ccc2c(c1)ncc1cccn12` as the molecule, how does the Potency read?
Its Potency is inconclusive [activator, partial curve].

`CC(C)CSC1=NSC2=NC(=O)/C(=C\c3ccccc3)C(=N)N12` was tested. Which Potency did it give?
Its Potency is inconclusive [inhibitor, partial curve].

Which activity change, negative = inhibition does the source give for `O=C(NCCN1CCOCC1)C1CCN(c2ncnc3c2sc2cccc(F)c23)CC1` here?
The activity change, negative = inhibition was inconclusive: -15.6% [inhibitor].

Which activity change, negative = inhibition does the source give for `CSc1ccc(/C=N/NC(=O)c2cccc(Cl)c2)cc1` here?
Its activity change, negative = inhibition is inconclusive: 21.9% [activator].

For `O=c1[nH]c(=S)n(C2CCCCC2)c(O)c1C=NCCN1CCOCC1`, which activity change, negative = inhibition is on record?
Its activity change, negative = inhibition is inconclusive: -19.4% [inhibitor].

With `O=C(NNC(=O)c1sccc1-n1cccc1)Nc1ccccc1` as the molecule, how does the Potency read?
The Potency was “inactive”.

Which activity change, negative = inhibition does the source give for `NC(=O)CSc1nc(-c2ccccc2)nc2c1CCCC2` here?
The activity change, negative = inhibition was inconclusive: 14.7% [activator].

For `COc1ccc2[nH]c3c(=O)n(N)c(C)nc3c2c1`, which Potency is on record?
Its Potency is inconclusive [activator, single point].

For `Cc1ccc(OCC(=O)N2CCN(S(=O)(=O)c3ccc(Cl)cc3)CC2)c([N+](=O)[O-])n1`, which Potency is on record?
The Potency was inconclusive [inhibitor, partial curve].

How did the Potency turn out when `O=C(NCC1CCCCC1)C12CN(Cc3ccccc3)CC1C(c1cccc([N+](=O)[O-])c1)=NO2` (stereo not given) was run?
The Potency was inconclusive [inhibitor, partial curve, poor fit].

With `CNNC(=S)NCCC1=CCCCC1` as the molecule, how does the Potency read?
Its Potency is “inactive”.

`CCOC(=O)C1=C(C)N(c2nonc2NC(C)=O)C(N)=C(C#N)C1c1ccccc1F` (stereo not given) was tested. Which Potency did it give?
Its Potency is inconclusive [inhibitor, single point].

With `COc1c(C)cc(Br)cc1C(=O)Nc1cccc(NC(=O)c2ccco2)c1` as the molecule, how does the Potency read?
The Potency was inconclusive [inhibitor, partial curve].

How did the activity change, negative = inhibition turn out when `C=CCOC(=O)C1=C(C)Nc2ncnn2C1c1cccs1` (stereo not given) was run?
Its activity change, negative = inhibition is inconclusive: -17.7% [inhibitor].

With `CC(/C=N\NC(=O)CN1CCN(S(=O)(=O)c2ccc(C)cc2)CC1)=C\c1ccccc1` as the molecule, how does the Potency read?
The Potency was inconclusive [inhibitor, single point].

How did the Potency turn out when `COc1ccc(OCC(=O)O/N=C(\N)c2ccc(OC)cc2)cc1` was run?
Its Potency is inconclusive [inhibitor, partial curve, poor fit].

Which Potency does the source give for `Cc1ccc2c(c1)N(CC(=O)N1CCc3ccccc3C1)C(=O)CO2` here?
Its Potency is inconclusive [inhibitor, single point].

Which Potency does the source give for `COc1ccccc1/C=C(/C(=O)OCC(=O)N(C)Cc1ccccc1)c1ccccc1` here?
The Potency was inconclusive [inhibitor, partial curve, poor fit].

For `CCCC(=O)Nc1cccc(-c2nc3cc(C)c(C)cc3o2)c1`, which Potency is on record?
The Potency was inconclusive [inhibitor, partial curve, poor fit].

With `COc1ccc2[nH]c(=O)c(CN(C)C(=O)c3ccncc3)cc2c1` as the molecule, how does the Potency read?
Its Potency is inconclusive [inhibitor, full curve, poor fit].

`Cc1ccc(OCCN2C(=O)C(=O)c3cc(C)ccc32)cc1` was tested. Which activity change, negative = inhibition did it give?
Its activity change, negative = inhibition is inconclusive: 16.5% [activator].

`CC1=CC(=O)OC1Cc1ccncc1` (stereo not given) was tested. Which Potency did it give?
Its Potency is inconclusive [inhibitor, partial curve].

With `NC(=O)C1CCN(C(=S)c2cccs2)CC1` as the molecule, how does the Potency read?
Its Potency is inconclusive [inhibitor, single point].

`O=C(c1ccc(=O)[nH]c1)N(Cc1ccco1)C1(C(=O)NC2CCCCC2)CCCCC1` was tested. Which Potency did it give?
Its Potency is inconclusive [activator, full curve, poor fit].

How did the activity change, negative = inhibition turn out when `CCOC(=O)C1CCN(c2c([N+](=O)[O-])c(C(Cl)Cl)nn2-c2ccccc2)CC1` was run?
The activity change, negative = inhibition was inconclusive: 3.03% [activator].

How did the activity change, negative = inhibition turn out when `COc1cccc(-n2cc(CN(C)Cc3nc(Cc4cccc(F)c4)no3)cn2)c1` was run?
The activity change, negative = inhibition was inconclusive: 14.9% [activator].

With `N#C/C(=C/c1cn(CC(=O)O)c2ccccc12)C(=O)Nc1ccccc1` as the molecule, how does the activity change, negative = inhibition read?
The activity change, negative = inhibition was inconclusive: -16.5% [inhibitor].

How did the Potency turn out when `CCN(CC)Cc1c(O)c(Cl)cc2c(C)c(C)c(=O)oc12` was run?
Its Potency is inconclusive [activator, partial curve].
